Sequences and labels used below:
B1: LINE1-full (parent)
chain: UACGUAGGUGGUUUUCCCCUGAUAGUGCUAAGGGGGCCUGGAAGUUUGGACUGGGCAGAGCUCAACACAGCGUGGCAAAGUGGCUGUGGCUAGACUGCCUCUCUGGAUUCCUCGUCACUCAGCAGGGCAUCUCUGAGAGAAAUGCC

Our source for the self-cleavage values is the RNAGym collection of RNA variant scans (doi:10.7554/elife.90254).

Read counts are not given, so values of variants with three or more changes are uncertain.

The variants in the data set derive from B1. The data set can be described thus: self-cleavage, relative activity (ratio to wild type); higher = more cleavage; in vitro, sequencing; the parent is a self-cleaving ribozyme.
Take UACGAAGGUGGGUUUCCCCUGAUAGUGCCAAGGGGGCCUGGAAGUUUGGACUGGGCAGAGCUCAACACAGCGUGGCAAAGUGGCUGUGGCUAGACUGCCUCUCUGGAUUCCUCGUCACUCAGCAGGGCAUCUCCGAGAGAAAUGCC [U5A U12G U29C U134C]: the self-cleavage was determined as 2.1.
Turning to UACGAAGGUGGUUUUCCCCUGAUAGUGCUAAGGGGGCCUGGAAGCUUGGACUGGGCAGAGCUCAUCACAGCGUGGCAAAGUGGCUGUGGCUAGACUGCCUCUCUGGAUUCCUCGUCACUCAGCAGGGCAUCUCUGAGAGAAACGCA [U5A U45C A65U U143C C146A], the self-cleavage was 0.27.
For UACGAAGGUGGUUUUCCCCCGAUAGUGCUAAGGGGGCCUGGAAGUUUGGACUGGGCAGAGCUCAACACAGCGUGGCAAAAUGGCUGUGGCUAGACUGCCUCUCUGGAUUCCUCGUCACUCAGCAGGGCAUCUCUGAGAGAAAUGCC [U5A U20C G80A] the value was 1.17.
As to UACGAAGGUGGUUUUCCCCUGAUAGUGCUAAGGGGGCCUGGAAGUUCGGACUGGGCAGAGCUCAACACAGCGUGGCAAGGUGGCUGUGCCUAGACUGCCUCUCUGGAUUCCUCGUCACUCAGCAGGGCAUCUCUGAGGGAAAUGCC [U5A U47C A79G G89C A138G], the self-cleavage worked out at 0.23.
For UACGAAGGUGGCUUCCCCCUGAUAGUGCUAAGGGGGCCUGGAAGUUUGGACUGGGCAGAGCUCAACACAGCGUGGCAAAGUGGCUGUGGCUAGACUGCCUCUCUGGAUUCCUCGUCACUCAGCAGGGCAUCUCUGAGAGAAGUGCC [U5A U12C U15C A142G] the value was 0.97; for UACGAAGGUGGUCUUCCCCUGAUAGUGCUAAGGGGGCCUGGAAGUUUGGACUGGGCAGAGCUCAACACAGCGUGGCAAAGUGGCUGUGGCUAGACUGCCUCUCUGGAUUCCUCGUCACUCAGCGGGGCAUCUCUGAGAGAGAUGCC [U5A U13C A124G A141G], 0.41; for UACGAAGGUGGUUUACCCCUGAUAGUGCUAAGGGGGCCUGGAAGUUUGGACUGGGCAGAGCUCUACACAGCGUGGCAAAGUGGCUGUGGCUAGACUGCCUCUCUGGAUUCCUCGUCACUCAGCAGGGCAUCCCUGAGAGAAAUGCC [U5A U15A A64U U132C], 0.33.
For UACGAAGGUGGUUUUCCCCUGAUAGUGCUAAGGGGGCCUGGAAGCUUGGACUGGGCAGAGCUCAACACAGCGUGGCAAAGUGGCUGUGGCUGGACUGCCCCUCUGGAUUCCUCGUCACUCAGCAGGGCAUCUCUGAGAGAAAUGCC [U5A U45C A92G U100C] the value was 0.
Then UACGAAGGUGGUUUUCCCCUGAUAGUGCUAAGGGGGCCUGGAAGUUUGGACUGGGCAGAGCUCAACACAGCGUGACAUAGUGGCUGUGGCUAGACUGCCUCUCUGGAUUCCUCGUCACUCAGCAGGGCAUCUCUGAGAGAAACGCC [U5A G75A A78U U143C], with 1.64; and UACGAAGGUGGUUUUCCCCUGAUAGUGCUAAGGGGGCCUGGAAGUUCGGACUGGGCAGUGCUCAACACAGCGUGGCAAAGUGGCUGUGGCUAGACUGCCUCUCUGGAUCCCUCGUCACUCAGCAGAGCAUCUCCGAGAGAAAUGCC [U5A U47C A59U U109C G126A U134C], with 0.61; and UACGAAGGUGGUUCUCCCCUGAUAGUGCUAAGGGGGCCUUGAAGAUUGGACUGGGCAGAGCUCAACACAGCGUGGCAAAGUGGCUGUGGCUAGACAGCCUCUCUGGAUACCUCGUCACUCAGCAGGGCAUCUCUGAGAGAAAGGCC [U5A U14C G40U U45A U96A U109A U143G], with 0.04.
Take UACGAAGGUGGUGUUCCCCUGAUAGUGCUAAGGGGGCCUGGAAGUUUGGACUGGGCAGAGCUCAACACAGCGUGGCAAAGUGGCUGUUGCUAGACUGCCUCUCUGGAUUCCUCGUCUCUCAGCAGGGCAUCUCUGAGAGAAGUGCC [U5A U13G G88U A117U A142G]: the self-cleavage came out at 0.09.
Then UACGAAGGUGGUUCUCCCCUGAUAGUGCUAAGGGGGCCUGGAAGUUUGGACUGGGCAGAGCUCAACACAGCGUGGCAAAGUGGCUGUGGCUAGACUGCCUCUCUGGAAUCCUCGUCACUCAGCAGGGCAUCUCUGAGAGAAAUGCC [U5A U14C U108A], with 1.53; and UACGAAGGUGGUUUUCCCCUGAUAGUGCUAAGGGGGCCUGGAAGUCUGGACUGGGCAGAGCUCAACGCAGCGUGGCAAAGUGGCUGUGGCUAGACUGCCUCUCUGGAUUCCUCGUCACUCAGCAGGGCAUCUCUGAGAGAAAUGCC [U5A U46C A67G], with 0.34; and UACGAAGGUGGCUUUCCCCUGAUAGUGCUAAGGGGGCCUGGAAGUUUGGACUGGGCAGAGCUCAACACAGCGUGGCAAAGUGGCUGUGGCUAGACUGCCUCUCUGGAUUCCUCGUCACUCAGCAGGGCAUCUCUGAGAGAGAUGCC [U5A U12C A141G], with 1.01.
Then UACGAAGGUGGUUCUCCCCUGAUAGUGCUAAGGGGGCCUGGAAGUUUGGACUGGGCAGAGCUCAACUCAGCGUGGCAAAGUGGCUGUGGCUAGACUGCCUCUCUGGAUUCCUCGUCACUCAGCAGGGCAUCUCUGAGAGAAAUGCC [U5A U14C A67U], with 0.22; and UACGAAGGUGGUUUUCCCCUGAUAGUGCUAAGGGGGCCAGGAAGUUUGGACUGGGCAGAGCUCAACACAGCGUGGCAAAGUGGCCGUGGCUAGACUGCCUCUCUGGAUUCCUCGUCACUCAGCAGGGCAUCUCUGAGAGAAAUGCC [U5A U39A U85C], with 0.07; and UACGAAGGUGGUUUUCCCCUGAUAGUGCUAAGGGGGCCUGGAAGUUCGGACUGGGCAGAGCCCAACACAGCGUGGCAAAGUGGCUGUGGCUAGACUGCCUCACUGGAUUCCUCGUCACUCAGCAGGGCAUCUCUGAGAGAAAUGCC [U5A U47C U62C U102A], with 0.
Then UACGAAGGUGGUUUUCCCCUGAUAGUGCUAAGGGGGCCUGGAAGGUUGGACUGGGCAGAGCUCAACACAGCGUGGCAAAGUGGCUGUGGCUAGACUGCCUCUCAGGAUUCCUCGUCACUCAGCAGGGUAUCCCUGAGGGAAAUGCC [U5A U45G U104A C128U U132C A138G], with 0; and UACGAAGGUGGUUUUCCCCAGAUAGUGCUAAGGGGGCCUGGAAGUUUGGACUGGGCAGAGUUCAACACAGCGUGGCAAAGUGGCUGUGGCUAGACUGCCUCUCUGGAUUCCUCGUCACUCAGCAGGGCAUCUCUGAGAGAAAUGCC [U5A U20A C61U], with 0.04.
Regarding UACGAAGGUGGUUCUCCCCUGAUAGUGCUAAGGGGGCCUGGAAGUUUGGACUGGGCAGAGCUCAACACAGCGUGGCAAAGUGGCUGUGGCUAGACUGCCUCUCUGGAUUCCUCGUCCCUCAGCAGGGCAUCUCUGAGAGAAAUGCC [U5A U14C A117C], the self-cleavage is 1.48.
For UACGAAGGUGGGCUUCCCCUGAUUGUGCUAAGGGGGCCUGGAAGUUUGGACUGGACAGAGCUCAACACAGCGUGGCAAAGUGGCUGUGGCUAGACUGCCUCUCUGGAUUCCUCGUCACUCAGCAGGGCAUCUCUGAGAGAAAUGCC [U5A U12G U13C A24U G55A] the value was 0.99; for UACGAAGGUGGUAUUCCCCUGAUAGUGCUAAGGGGGCCUGGAAGUUUGGACUGGGCAGAGCUCAACACAGCGUGGCAAAGUGGCUGUGGCUAGACCGCCUCUCUGGAUUCCUCGUCACUCAGCAGGGCAUCUCUGAGAGAAAUGCC [U5A U13A U96C], 0; for UACGAAGGUGGUUAUCCCCUGAUUGUGCUAAGGGGGCCUGGAAGUUUGGACUGGGCAGAGCUCAACACAGCGUGGCAAAGUGGCUGUGGCUAGACUGCCUCUCUGGAUUCCUCGUCACUCAGCAGGGCAUCUCUGAGAGAAAUGCC [U5A U14A A24U], 0.68.
Then UACGAAGGUGGUUUUCCCCUGAUAGUGCUAAGGGGGCCUGGAAGCUUGGAUUGGGCAGGGCUCAACACAGCGUGGCAAAGUGGCUGUGGCUAGACUGCCUCUCUGGAUUCCUCGUCACUCAGCAGGGCACCUCUGAGAGAAAUGCC [U5A U45C C51U A59G U130C], with 0.3; and UACGAAGGUGGUUUUCCCCUGAUAGUGCUAAGGGGGCCUGGAAGUUCGGACUGGGCAGAGCUCUACACAGCGUGGCAAAGUGGCUGUGGCUAGACAGCCUCUCUGGAUUCCUCGUCACUCAGCAGGGCAUCUCUGAGGGAAAUGCC [U5A U47C A64U U96A A138G], with 0.08.
For UACGAAGGUGGUUUUCCCCCGAUAGUGCUAAGGGGGCCUGGAAGUUUGGACUGGGCAGGGCUCAACACAGCGUGGCAAAGUGGCUGUGGCUAGACUGCCUCUCUGGAUUCCUCGUCACUCAGCAGGGCGUCUCUGAGAGAGAUGCC [U5A U20C A59G A129G A141G] the value was 0.34; for UACGAAGGUGGUAUUCCCCCGAUAGUGCUAAGGGGGCCUGGAAGGUUGGACUGGGCAGAGCUCAACACAGCGUGGCAAAGUGGCCGUGGCUAGACUGCCUCUCUGGAUACCUCGUCACUCAGCAGGGCAUCUCUGAGAGAAAUGCC [U5A U13A U20C U45G U85C U109A], 0.28; for UACGAAGGUGGUUUUCCCCUGAUAGUGCUAAGGGGGCCCGGAAGUUUGGACUGGGCAGAGCUCAACACAGCGUGGCAAAGUGGCUGAGGCUAGACUGCCUCUCUGGAUUCCUUGUCACUCAGCAGGGCAUCUCUGAGAGAAAUGCC [U5A U39C U87A C113U], 0.06.
For the variant UACGAAGGUGGUUAUCCCCUGAUAGUGCUAAGGGGGCCUGGAAGUUUGGACUGGGCAGAGCUCAACACAGCGUGGCAAAGUGGCUGUGGCUAGACUGCCUCUCUGGGUUCCUCGUCACUCAGCAGGGCAUCUCUGAGAGAAAUGCC [U5A U14A A107G], the self-cleavage is 1.59.
Then UACGAAGGUGGUUUUCCCCUGAUAGUGCUAAGGGGGCCUGGAAGUUUGGACAGGGCAGAGCUUAACACAGCGUGGCAAAGUGGCUGUGGCUAGACUGCCUCUCUGGAUUCCUCGACACUCAGCAGGGCAUCUCUGAGAGAAAUGCC [U5A U52A C63U U115A], with 0.08; and UACGAAGGUGGUUUUCCCCUGAUAGUGCUAAGGGGGCCUGGAAGUCUGGACUGGGCAGAGCUCAACACAGCGUGGUAAAGUGGCCGUGGCUAGACUGCCUCUCUGGAUUCCUCGUCACUCAGCAGGGCAUCUCUGAGAGAAAUGCC [U5A U46C C76U U85C], with 0.58.
For UACGAAGGUGGUCUUCCCCUGAUAGUGCUAAGGGGGCCUGGAAGUUUGGACUGGGCAGAGCUCAACACAGCGUGGCAAAGUGGCUGUGGCUAGACUGCCUCUCUGGAUUCCUCGUCACUCUGCAGGGCAUCUCUGAGAGAAAAGCC [U5A U13C A121U U143A] the value was 0.99; for UACGAAGGUGGUUUUCCCCUGAGAGUGCUAAGGGGGCCCGGAAGUUAGGACUGGGCAGAGCUCAACACAGCGUGGCAAAGUGGCUGUGGCUAGACUGCCUCUCUGGACUCCUCGUCACUCAGCAGGGCAUCUCUGAGAGAAAUGCC [U5A U23G U39C U47A U108C], 1.1.
For UACGAAGGUGGUUUUCCCCUGAUAGUGCUAAGGGGGCCUGGAAGUCUGGACUGGGCAGAGCUCAACGCAGCGUGGCAAAGUGGCUGAGGCUAGACUGCCUCUCUGGAUUCCUCGUCACUCAGCAGGGCAUCUCUGAGAGAAAUGCC [U5A U46C A67G U87A] the value was 0.24.
With UACGAAGGUGGUUUGCCCCAGAUAGUGCUAAGGGGGCCUAGAAGUUUGGACUGGGCAGAGCUCGACACAGCGUGGCAAAGUGGCUGUGGCUAGACUGCCUCUCUGGAUUCCUCGUCACUCAGCAGGGCAUCUCUGAGAGAAAUGCC [U5A U15G U20A G40A A64G], the self-cleavage was 0.11.
Then UACGAAGGUGGUUUUCCCCUGACAGUGCUAAGGGGGCCUGGAAGUUUGGACUGGGCAGAGCUCAACACAGCGUGGCAAAGUGGCUGUGACUAGACUGCCUCUCUGGAUUCCUCGUCACUCAGCAGGGCAUCUCUGGGCGAAAUGCC [U5A U23C G89A A136G A138C], with 0.1; and UACGAAGGCGGUUUACCCCUGAUAGUGCUAAGGGGGCCUGGAAGUUUGGACUGGGCAGAGCUCAACACAGCGUGGCAAAGUGGCUGUGGCUAGACUGCCUCUCUGGAUUCCUCGUCACUCAGCAGGGCAUCUCUGAGAGAAAUGCC [U5A U9C U15A], with 0.
Then UACGAAGGUGGUUUUCCCCUGAUAGUGCUAAGGGGGCCUGGAAGUUUGGACAGGGCAGAGCUCAACACAGCGUGGCAAAGUGGCUGUGGCUAGACUGCCUCUCUGGAUUCCUCGUCACCCAGCAGGGCAUCUCUGAGAGAAAUGCC [U5A U52A U119C], with 0.75.
